Read counts are not given, so values of variants with three or more changes are uncertain.
B1: CPEB3 Ribozyme (parent)
chain: UAACAGGGGGCCACAGCAGAAGCGUUCACGUCGCAGCCCCUGUCAGAUUCUGGUGAAUCUGCGAAUUCUGCUGUAUAUCUC

Variants of: B1
Experiment: self-cleavage, relative activity (ratio to wild type); higher = more cleavage; in vitro, sequencing
How it was run: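 CPEB3 self-cleaving ribozyme mutant libraries were made by rounds of error-prone PCR, barcoded, and transcribed in vitro with T7 RNA polymerase for 5 hours at 37°C. Cleavage occurred during transcription and a 15 min DNase I step before EDTA stop. RNAs were reverse transcribed with template switching and Illumina-sequenced, with DNA sequencing mapping barcodes to variants. Relative activity is the variant's cleaved/total read fraction divided by wild type's (minimum 5 reads), averaged across three batches.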

| Variant | self-cleavage |
| --- | --- |
| A15G A20G C62U A77G U78A | 0.16 |
| A15G A20U C37U A57C U60C | 0.14 |
| A15C A21G U60C | 0.11 |
| A15G A21G A35G U51A | 0.22 |
| A15C A21G U58C U67G U69A U78C | 0 |
| A15G A20U U41C U76C | 0.22 |
| A15G A21C U43A U49A | 0.29 |
| A15G A18G A28G U54A A57G | 0.13 |
| A15G A21G C38A U43A U69G A77C | 0.05 |
| A15C A21G G24A A28C U54C A56G U74C | 0.03 |
| A15C U31C A56G U76A | 0.23 |
| A15G A18G G36U C40U U54C A64G U69A | 0.07 |
| A15G A21U G24A U41A | 0.33 |
| A15G A18U A28C A35G C40A U74C | 0.05 |
| A15G A20G U43A A45G U60A | 0.13 |
| A15G A21U U43A | 0.42 |
| A15C U26C A57G U78C | 0.35 |
| A15G A20U C79A | 0.8 |
| A15C A28U U78C | 0.59 |
| A15G A21G A77U | 0.67 |
| A15C U26C U60A U67C | 0.18 |

| Variant | self-cleavage |
| --- | --- |
| A15C A35G U43A U76A | 1.18 |
| A15G A20G A35U U41C | 0.39 |
| A15G A21G U31C U72C | 0.48 |
| A15G A18G U72C | 0.77 |
| A15G A18U U69C U80C | 0.22 |
| A15G A21G U49C U78C U80A | 0.17 |
| A15G A21U A28G A35G U51A | 0.33 |
| A15G A21U G22A U31C U43C U66C A75G | 0.07 |
| A15G A21G U26C A65G | 0.07 |
| A15G A18G U26A U74G | 0.37 |
| A15G A21G U69C | 0.2 |
| A15G A21G U69A | 0.17 |
| A15G A20G U31A G55A | 0.5 |
| A15C C37A U49C | 0.25 |
| A15G A20G U25C U66C | 0.08 |
| A15C U43C A57G U78C | 0.32 |
| A15G A21G G52A | 0.66 |
| A15G A21G A35G A45U U69A A75G | 0.24 |
| A15G A20G C39U U48A U51C | 0.06 |
| A15G A21U G33U C39U A57G | 0.47 |
| A15C A35G U43A A64G U76A | 1.31 |

| Variant | self-cleavage |
| --- | --- |
| A15C A21U U25C U66C U74C | 0.07 |
| A15C A21U U80A | 0.56 |
| A15G A20G A21G U60A | 0.42 |
| A15G A20G U41A A47G U72A A77G | 0.09 |
| A15G A21G C32U C38U A64U | 0.06 |
| A15G A18U A20G U41C U72A | 0.09 |
| A15G A21G G63C U72A U80C | 0.49 |
| A15G A20U A35U | 0.14 |
| A15G A18U U49A A64U | 0.1 |
| A15C A56G A57U | 0.18 |
| A15C U31A U54C | 0.53 |
| A15C U41A A65U | 0.23 |
| A15G A18C U41C A47U U49C U60C G63U | 0.18 |
| A15C U31C U43A G63A A64G U69C | 0.09 |
| A15C U48A U60A A77G | 0.48 |
| A15C C32G U41A G55A G61A A65G U72C | 0.11 |
| A15G A21G U41A U72G | 0.18 |
| A15G A21G C34U U80C | 0.42 |
| A15C A35U U72C | 0.91 |
| A15C C29U U48C U69C | 0.13 |
| A15C G36U A47G | 0.08 |

| Variant | self-cleavage |
| --- | --- |
| A15G A20G A56C U60A U67A | 0.09 |
| A15G A20G U26C U69A | 0.05 |
| A15G A21G C38G U69C | 0.17 |
| A15G A18G C37A U74C | 0.16 |
| A15G A18G A20U C62A U72C | 0.05 |
| A15G A20G A57G C71U | 0.19 |
| A15C U51C U54C U60C U67C U72A | 0.13 |
| A15G A20G A21G U54C U78A | 0.36 |
| A15G A21U G33A C50U | 0.14 |
| A15G A21C A47G U54C G63A U69A | 0.08 |
| A15G A20G U80G | 0.85 |
| A15G A20G U60C G63A | 0.14 |
| A15G A18U U41A U80C | 0.37 |
| A15G A21G U31A U41G U43C A45C U80C | 0 |
| A15C U25C U26G A56G U80G | 0.11 |
| A15G A18U G19C C34U U49C U58C | 0.08 |
| A15G A21U U31C | 0.24 |
| A15G A18U U26C U43C G52A U69C | 0.26 |
| A15G A21G U72C | 0.59 |
| A15G A21G U72A | 0.2 |

— the RNAGym collection of RNA variant scans (doi:10.1093/nar/gkz1192)
